Measurements taken from the supplement of paper PMC3334620.
Over roughly 33,000 sequences, “E-score (-0.5 to 0.5)” has its median near -0.012; the highest 2% begin near 0.29. The list shows a part of the results.

Biological target: T1, Ybr033w (UniProt P38073)
T1 sequence: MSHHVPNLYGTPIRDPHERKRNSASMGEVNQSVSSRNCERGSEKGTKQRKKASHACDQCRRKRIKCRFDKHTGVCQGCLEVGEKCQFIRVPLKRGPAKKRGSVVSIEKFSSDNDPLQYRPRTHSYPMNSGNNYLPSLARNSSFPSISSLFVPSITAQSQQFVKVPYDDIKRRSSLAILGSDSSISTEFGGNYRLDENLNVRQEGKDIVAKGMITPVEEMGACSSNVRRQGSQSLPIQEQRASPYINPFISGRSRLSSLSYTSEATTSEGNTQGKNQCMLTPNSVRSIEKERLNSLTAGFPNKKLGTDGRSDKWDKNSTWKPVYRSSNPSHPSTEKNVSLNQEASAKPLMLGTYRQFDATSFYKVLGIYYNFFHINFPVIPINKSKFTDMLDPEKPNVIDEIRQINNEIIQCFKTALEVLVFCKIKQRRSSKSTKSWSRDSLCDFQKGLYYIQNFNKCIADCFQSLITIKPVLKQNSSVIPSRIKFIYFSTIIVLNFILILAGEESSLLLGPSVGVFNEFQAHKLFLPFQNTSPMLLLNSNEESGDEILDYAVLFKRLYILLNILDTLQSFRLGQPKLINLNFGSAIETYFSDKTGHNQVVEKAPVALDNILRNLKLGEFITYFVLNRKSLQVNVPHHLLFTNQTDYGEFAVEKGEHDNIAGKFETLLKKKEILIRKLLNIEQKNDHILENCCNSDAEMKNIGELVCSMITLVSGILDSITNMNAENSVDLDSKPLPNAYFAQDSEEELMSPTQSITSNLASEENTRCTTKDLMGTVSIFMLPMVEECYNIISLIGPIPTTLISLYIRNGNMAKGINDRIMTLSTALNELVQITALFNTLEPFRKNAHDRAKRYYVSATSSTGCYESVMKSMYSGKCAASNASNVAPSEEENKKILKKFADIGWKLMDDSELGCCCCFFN
Experiment: PBM E-score (8-mer binding enrichment) (E-score (-0.5 to 0.5)); higher = stronger / more preferred TF binding; most listed sequences are background and not binding sites
Details: protein concentration: 200 nM; construct: GST-full length
Protocol: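 Universal 'all 10-mer' protein binding microarrays (Agilent AMADID 015681) probed with GST-tagged S. cerevisiae TFs (full-length or DBD) made by in vitro transcription/translation (PURExpress), about 100-200 nM. Bound TF was detected with fluorescent anti-GST. Each ungapped 8-mer (which stands for itself and its reverse complement) is scored by the PBM enrichment score (E-score), a modified Wilcoxon-Mann-Whitney statistic from -0.5 to +0.5, computed with the Universal PBM Analysis Suite. Scale: above 0.35 generally sequence-specific binding.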

Sequence | PBM E-score
CCAAAGGA | -0.14
ACATCAAA | 0.121
CCAGGTAG | -0.0963
CAGTCCAC | -0.0868
CTTCAAAG | 0.0507
ATCAGGAT | 0.139
GCTTATCC | -0.00747
CAATTCGA | 0.104
ATGTACAG | -0.0484
CGACGTAG | -0.223
CAGTTTTA | 0.225
ACTAAAGA | 0.0228
ACCCTAGA | 0.00118
AGACGCAG | -0.133
CTTACCGC | -0.0405
CGTGAGGA | -0.0879
ACTCAACA | 0.146
GGACCGCA | -0.247
CTACCAAC | 0.154
AGTTACCC | -0.117
GACGCTGC | -0.213
GCCAATGA | -0.163

Sequence | PBM E-score
GCCAGTAC | -0.0841
CTTAAACA | 0.104
CTAGGGGC | -0.291
CTAGACTA | -0.019
GACTGGAC | -0.343
ACTACTGG | 0.017
ATCGAGGG | -0.255
CGCAACCC | -0.0745
CTGTCAGC | 0.0147
CGAATGCC | -0.176
CCTCATCG | -0.0884
GAGGTAGA | -0.197
ATGCCGCG | 0.00396
CTTTAGTC | -0.181
ATAACCGC | 0.051
ATCAGGCG | 0.0289
AACCCTTG | -0.0587
AATGCACA | -0.0262
CATCGGAA | 0.25
AGCTAATA | 0.078
GTGGAAAC | -0.0663
ACAGGTCT | -0.0687

Sequence | PBM E-score
CATAAACA | 0.262
CTAGGTTA | 0.0226
GAGTACAC | 0.00128
CGTTTAGC | -0.0419
ATTAGCGG | 0.0274
AAATTGAG | 0.126
CGCTTTCC | -0.204
CAGCCAAA | 0.18
AAGTGGTG | -0.0434
CCGAGTCG | -0.186
AACCTGCG | -0.218
TAACGGCA | -0.11
ACACTCAC | 0.0907
ACTCATGC | -0.112
ACTCTTAA | -0.0552
CCACGTGC | -0.127
GACTGGCC | -0.14
AAGACTAC | -0.0766
GCATCAAA | 0.183
CCCACTAC | 0.00712
ATAGACTA | 0.206
ATCCAAGC | -0.0241

Sequence | PBM E-score
AAGCAAGT | 0.0784
CATCTACA | 0.0525
CCGTAAGC | -0.0469
ACAAATCC | 0.24
AACACGGG | -0.0541
GGGTCATA | -0.143
GTGGTCGA | -0.198
AGATCCTA | 0.0138
GGCGGCTA | -0.244
CCTCGCCA | -0.272
AGACGCAC | -0.0525
CCACGTGG | -0.454
TTCGAGAA | 0.0644
ACCCACGC | -0.192
CACCTTGA | -0.135
GCTAGTAA | -0.014
ACTCCAGG | -0.069
GAGTTCGC | -0.128
AGTGTATA | -0.133
CAATCTAA | 0.163
